# In the supplement of paper PMC12217912:
# Some of the results follow. The full chains were built here from the parent and the listed change. Values near 0.05 are background.
# B1: TEV protease; numbered along this chain (parent)
# chain: MGESLFKGPRDYNPISSSICHLTNESDGHTTSLYGIGFGPFIITNKHLFRRNNGTLVVQSLHGVFKVKDTTTLQQHLVDGRDMIIIRMPKDFPPFPQKLKFREPQREERICLVTTNFQTKSMSSMVSDTSCTFPSGDGIFWKHWIQTKDGQCGSPLVSTRDGFIVGIHSASNFTNTNNYFTSVPKNFMELLTNQEAQQWVSGWRLNADSVLWGGHKVFMVKPEEPFQPVKEATQL
# Variants of: B1
# Assay: raw area under fraction-flipped curve 0-4 h after induction (AUC4h, not background-subtracted), DNA-recorder readout of cleavage of the substrate (dimensionless); higher = more cleavage of the substrate by the protease variant
# Details: temperature: 34 °C; time window: 0-4 h after rhamnose induction
# Method: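 In vivo DNA recorder in E. coli TOP10(DE3) ΔrhaA at 34 °C. Each TEVp single-site mutant (parent TEVp 0) is paired with a single-site variant of the 7-mer TEVs (canonical ENLYFQ|S). The substrate sits between flexible linkers in a Bxb1-sfGFP-TEVs-SsrA fusion, so cleavage stabilises Bxb1 and speeds flipping of a recombination array, read by NGS. The value is the raw area under the fraction-flipped curve over 0-4 h after rhamnose induction (AUC4h), with ≥20 reads per time point. It is not background-subtracted; inactive controls average about 0.047.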
# 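Note: Bxb1 expression induced with 0.2% (w/v) L-rhamnose at OD600 near 0.5, cultures sampled hourly, flipped fraction per protease–substrate barcode pair counted by paired-end Illumina sequencing.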
Variant,area with substrate CNLYFQS,area with substrate DNLYFQS,area with substrate FNLYFQS,area with substrate GNLYFQS,area with substrate HNLYFQS,area with substrate LNLYFQS,area with substrate NNLYFQS,area with substrate PNLYFQS,area with substrate QNLYFQS,area with substrate SNLYFQS,area with substrate TNLYFQS,area with substrate WNLYFQS,area with substrate YNLYFQS,area with substrate INLYFQS,area with substrate MNLYFQS,area with substrate VNLYFQS,area with substrate KNLYFQS,area with substrate RNLYFQS
V64P,0.0681,0.0514,0.059,0.0782,0.0587,0.0622,0.0609,0.06,0.0739,0.0573,0.0677,0.0661,0.0345,–,–,–,–,–
V64R,0.0428,0.0798,–,–,0.0566,–,0.0602,0.063,0.0446,–,0.0619,–,–,–,–,–,–,–
V64Q,0.0829,0.0859,–,–,–,0.0581,0.0672,0.0679,0.0479,0.0769,0.0651,0.0703,0.0523,0.0592,0.0774,0.0544,–,–
L48E,0.0613,0.044,0.0594,0.0745,0.0545,0.0632,–,0.0423,0.0525,0.0543,0.0627,0.0453,0.0621,–,0.0594,0.0447,0.0634,–
L48Q,0.0571,–,–,–,0.0823,0.0551,–,0.0546,–,0.0587,0.0487,0.0547,–,0.051,0.0724,0.11,0.0634,0.0408
L48I,0.065,0.0561,0.0526,0.0486,0.0584,0.0527,–,–,–,–,0.0318,0.0623,0.0317,–,0.0693,–,0.0486,–
L48C,0.0649,0.0774,–,–,0.0549,0.0631,–,–,–,–,0.0541,0.0654,0.042,0.0499,0.0587,0.0723,0.0493,0.0666
L48A,0.0708,0.0623,0.0625,–,0.0436,0.0433,0.0185,0.0693,–,0.063,0.0576,0.0591,0.061,–,0.0631,–,0.0654,–
T72N,0.0702,–,0.0572,0.0879,0.08,0.081,0.0732,–,0.0547,0.0559,0.0537,0.0597,0.0548,0.0614,0.0724,–,0.0698,0.0659
T72S,0.0826,0.0846,–,0.0614,0.0576,–,0.0833,–,0.0797,0.0718,0.0486,–,0.0572,–,–,–,0.107,–
S16Q,0.0765,0.0849,–,0.0641,0.0466,0.0632,0.0647,0.0639,0.0603,0.0656,0.0623,0.0612,0.0662,0.0622,0.0662,0.0583,0.0661,–
S16V,0.0675,–,–,0.0777,0.0468,0.0553,0.0758,0.0554,–,–,0.0627,0.0601,0.0701,0.0649,0.062,–,–,–
S16G,0.0689,–,–,0.0851,0.065,0.0719,–,0.0727,–,0.0663,0.11,0.0621,0.0603,0.0734,0.0777,–,0.0622,–
S16E,0.0767,–,–,0.0606,0.0604,–,0.0681,0.0745,0.0668,–,0.0572,0.0612,0.0675,0.0616,0.068,0.0696,0.0728,–
S16N,0.0612,0.0767,0.0564,0.0607,0.0727,0.0593,0.0702,–,0.0523,0.0648,0.0468,0.0589,0.0633,0.0709,–,0.0613,0.0602,–
S16D,0.0866,–,0.0626,0.0694,0.0549,–,0.0532,0.0595,0.0544,0.0718,0.0651,0.0417,0.0499,0.0609,–,–,0.068,–
S16A,0.0463,0.0684,0.0746,–,0.0624,0.0676,–,0.0746,0.0831,0.0707,0.0576,0.0648,0.0803,0.0655,–,–,0.0678,–
L112Q,0.0556,–,0.0675,0.0548,0.0582,0.0655,0.0642,–,–,0.0598,0.0632,0.0528,–,–,–,–,0.075,–
G80K,0.0668,0.0418,0.059,0.0652,0.0603,0.0615,–,0.0654,0.053,0.0621,0.0547,0.076,0.0483,0.0681,0.0613,–,0.0766,–
G80P,0.0547,–,–,–,0.0621,0.0503,–,0.0541,0.0736,–,–,0.0589,0.022,–,–,0.0523,–,0.0366
M88D,0.0641,–,–,–,0.0532,–,–,–,–,0.0198,0.0254,0.0379,0.0527,–,–,–,–,–
M88Q,0.11,–,0.108,–,–,0.0616,–,–,–,–,–,0.0516,–,–,0.0739,–,0.0653,–
K120F,0.0681,–,0.0617,–,0.0624,0.0642,0.0709,0.0583,–,–,0.0662,0.0563,0.067,–,0.0509,0.0655,0.0629,–
K120W,0.0797,0.0643,–,–,0.0685,–,–,0.0656,–,–,0.031,0.0587,0.0571,–,–,–,0.0682,–
K120P,0.0403,–,–,0.0605,–,–,–,0.0673,–,0.0535,–,0.0522,0.0399,–,0.105,–,–,0.073
L56Q,0.0332,–,0.0412,0.0547,0.0399,–,–,0.0501,–,–,0.0203,0.0328,–,–,–,–,–,–
L56T,0.0458,0.0705,–,0.0613,0.0592,0.0618,–,0.0611,0.0524,0.0543,0.071,0.0513,0.0584,0.0587,–,0.0124,–,–
L56M,0.0683,–,–,0.0638,0.0722,0.067,–,–,–,–,0.0611,0.0797,–,0.0708,0.0534,0.0697,0.0361,–
L56Y,0.0489,0.0679,–,0.0697,0.0496,–,0.0471,0.0543,0.0416,–,–,0.0441,0.0536,0.0568,–,0.0693,0.0656,–
L56C,0.0459,0.0675,0.0465,0.0539,0.056,0.0568,–,0.0573,–,–,0.0512,0.0526,–,–,0.0629,–,0.0605,–
